Measurements from PubChem BioAssay AID1508624 (National Center for Advancing Translational Sciences (NCATS), 2021).
The whole screen tested about 48,000 compounds, of which about 120 (0.25%) were called active. About 4% were inconclusive and are not listed. Calls come from the whole dose curve; as a rule, active = well fitted activation curve with a large enough effect; inconclusive = small, poorly fitted or top-dose-only effect, or another doubt; inactive = no such curve, though single readings can be large or run the other way. This is one part of the list.

Experiment: Primary qHTS for Identification of Small Molecule Activators of Huntingtin-Antisense Promoter Activity; note: nearly all actives have a fitted effect of over 55% in size
Details: HEK293 HTT-AS promoter firefly luciferase reporter, 24 h; series mostly up to 57.5 µM; activity change, positive = activation: at the top concentration
How it was run: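 HEK293 cells carrying firefly luciferase reporters were seeded at 2,500 per well in Opti-MEM and cultured for 24 h. They were then treated with compounds at up to 57.5 uM final for 24 h at 37 degrees C before Dual-Glo luminescence readout.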

SMILES | activity change, positive = activation
CCOc1cccc(C(=O)N(Cc2ccc(F)cc2)Cc2ccco2)c1 | inactive: -34.4%
Cc1ccc(N2C(=O)CCSC23C(=O)N(Cc2ccc(F)cc2)c2ccccc23)cc1 (stereo unspecified) | inactive: -50.5%
Cc1ccc(N2C(=O)CS(=O)(=O)C23C(=O)N(Cc2ccc(Cl)cc2)c2ccccc23)cc1C (stereo unspecified) | inactive: -21.3%
COCCn1c(SCC(=O)c2ccc(F)cc2)nc2cc(C(=O)NC3CCCC3)ccc2c1=O | inactive: 3.44%
COc1ccc(Cl)cc1NC(=O)C1CCN(S(=O)(=O)c2ccc(F)cc2)CC1 | inactive: -27.9%
COc1ccc(C(=O)N(c2ccc(C)cc2)S(=O)(=O)c2ccc(C)cc2)cc1 | inactive: -28.8%
O=C1CC(c2ccc(F)cc2F)c2cc3c(cc2N1)OCO3 (stereo unspecified) | inactive: -4.34%
COc1ccc(OC)c(NC(=O)Cn2c(=O)n(-c3ccc(Cl)cc3)c(=O)c3c(C)c(C)sc32)c1 | inactive: 12.9%
CC1CCN(C(=O)CSc2nnc(NC(=O)Nc3ccccc3)s2)CC1 | inactive: -33.3%
Cc1ccc2c(c1)N(C(=O)CCC(=O)NCc1cccs1)CC(C)O2 (stereo unspecified) | inactive: 2.41%
COC(=O)c1ccccc1NC(=O)Cn1c(CCC(=O)O)ccc1-c1ccc(C)cc1 | inactive: -15.7%
Cc1cccc(CC(=O)Nc2c(C(=O)Nc3cccc(F)c3)oc3ccccc23)c1 | inactive: 10.6%
CCOC(=O)C1CCN(C(=O)Cn2ncc3c4ccccc4n(Cc4ccccc4)c3c2=O)CC1 | inactive: -19.7%
CCOC(=O)c1c(C)[nH]c(C)c1S(=O)(=O)N(C)CC(=O)N1CCN(c2cccc(Cl)c2)CC1 | inactive: -27.1%
Cn1c(=O)c2c(nc(N3CCOCC3)n2Cc2ccccc2)n(C)c1=O | inactive: -2.18%
Cc1cccc(C)c1NC(=O)Cn1cc(S(=O)(=O)Cc2ccc(F)cc2)c2ccccc21 | inactive: -25.4%
COc1ccc(C(=O)Nc2nnc(SCc3cc(=O)n4cc(Cl)ccc4n3)s2)cc1 | inactive: 17.3%
Cc1ccc(C(=O)c2cn(Cc3c(F)cccc3Cl)c3nc(C)ccc3c2=O)cc1 | inactive: -22.7%
CCNc1sc(S(C)(=O)=O)nc1S(=O)(=O)c1ccc(C)cc1 | inactive: -21.7%
Cc1ccc(Cn2c(=O)n(Cc3ccccc3Cl)c(=O)c3cccnc32)cc1 | inactive: -14.2%
Clc1cccc(-n2ncc3c(N4CCCCCC4)ncnc32)c1 | inactive: -37.5%
Cn1c(=O)n(C)c2cc(N3CCCC3)c(NC(=O)Nc3ccccc3)cc21 | inactive: 3.7%
Cc1cc(C(=O)N2CCN(c3cc(Cl)ccc3C)CC2)c2c(C)nn(-c3ccccc3)c2n1 | inactive: -23.1%

SMILES | activity change, positive = activation
CCc1ccc(NC(=O)CCNC(=O)Cn2cnc3ccccc3c2=O)cc1 | inactive: 8.76% [at 11.5 µM, percent change from vehicle, -100% = no light]
Cc1ccc(NC(=O)Cn2ncn3c(cc4ccccc43)c2=O)cc1C | inactive: -17.2%
COC(=O)c1ccccc1NC(=O)Cn1c(=O)n(CCCCC(=O)NCc2ccc3c(c2)OCO3)c(=O)c2ccccc21 | inactive: -7.65%
COc1cc(OC)c(NC(=O)c2c(C)oc3ncnc(N4CCCCC4)c23)cc1Cl | inactive: -2.18%
Cc1ccc(N2CCN(c3nc4ccccc4c4nnc(C)n34)CC2)c(C)c1 | inactive: -13.6%
O=C1Cc2cc(S(=O)(=O)N3CCCCC3)cc3c2N1CCC3 | inactive: -4.34%
Cc1ccc(N2CC(NC(=O)Cc3ccc(F)cc3)CC2=O)cc1 (stereo unspecified) | inactive: -8.27%
Cc1cccc(CSc2nc(=O)c3c(n2C)NC(=O)CC3c2cccc(O)c2)c1 (stereo unspecified) | inactive: -5.08%
Cc1ccc2c(c1)sc1nc(-c3cc4cc(Cl)ccc4oc3=O)cn12 | inactive: -19.6%
COc1ccccc1NC(=O)Cn1c(=O)n(-c2cccc(Cl)c2)c(=O)c2sc3ccccc3c21 | inactive: -13.5%
COc1cc2[nH]c(=O)n(Cc3ccc(C(=O)NCc4ccc(C)cc4)cc3)c(=O)c2cc1OC | inactive: -17%
O=C(Cn1c(=O)n(Cc2ccc(C(=O)NCc3ccc4c(c3)OCO4)cc2)c(=O)c2ccccc21)Nc1cccc(Cl)c1 | inactive: -13.3%
Cc1cnc(NC(=O)Nc2cc(Br)c(C)cc2OC[C@@H]2CNCCO2)cn1 | inactive: -24.7%
CC1=C(C(=O)Nc2cccc(C(F)(F)F)c2)C2(CCCCCC2)OC1=O | inactive: -32.1%
CCc1ccc(C2CC(=O)c3c([nH]c(C(=O)OCc4ccc(C)cc4)c3C)C2)cc1 (stereo unspecified) | inactive: -19.2%
CCC(C(=O)NCc1ccc2c(c1)CCN2C(=O)c1ccc(F)cc1)c1ccccc1 (stereo unspecified) | inactive: 10.8%
CCc1nc2ccc(C(=O)NCCc3ccc(OC)cc3OC)cc2nc1CC | inactive: -45.5%
O=C(NCCc1ccc(Cl)cc1)c1ccc(CS(=O)(=O)Cc2ccc(Cl)cc2)o1 | inactive: -6.09%
CCOC(=O)c1cc(-c2ccc(C)cc2)n(CCC(=O)Nc2cc(Cl)ccc2C)c1C | inactive: -4.34%
CC(=O)c1cc(-c2ccccc2)n(CCC(=O)Nc2nc3c(C)cccc3s2)c1C | inactive: -15%
CCOc1ccc(CCNC(=O)c2cc(Nc3ccc(C)cc3C)nc3ccccc23)cc1OCC | inactive: 0.176%
CC1CCN(S(=O)(=O)c2ccc3[nH]cc(C(=O)NCc4ccc(F)cc4)c(=O)c3c2)CC1 | inactive: -9.77%
Cc1c(C(=O)Nc2ccc(N3C[C@@H](C)O[C@@H](C)C3)nc2)cccc1-c1ccc(OC(F)(F)F)cc1 | inactive: 4.22%
